Results from the supplement of paper PMC3334620.
Whole data set: some 33,000 sequences, median “E-score (-0.5 to 0.5)” near -0.035, cut for the highest 2% near 0.35. Some of the results follow.

Each sequence was assayed against T1, Pdr3 (UniProt P33200) (assay: PBM E-score (8-mer binding enrichment) (E-score (-0.5 to 0.5)); higher = stronger / more preferred TF binding; most listed sequences are background and not binding sites). Settings: protein concentration: 200 nM; construct: GST-full length.
T1 sequence: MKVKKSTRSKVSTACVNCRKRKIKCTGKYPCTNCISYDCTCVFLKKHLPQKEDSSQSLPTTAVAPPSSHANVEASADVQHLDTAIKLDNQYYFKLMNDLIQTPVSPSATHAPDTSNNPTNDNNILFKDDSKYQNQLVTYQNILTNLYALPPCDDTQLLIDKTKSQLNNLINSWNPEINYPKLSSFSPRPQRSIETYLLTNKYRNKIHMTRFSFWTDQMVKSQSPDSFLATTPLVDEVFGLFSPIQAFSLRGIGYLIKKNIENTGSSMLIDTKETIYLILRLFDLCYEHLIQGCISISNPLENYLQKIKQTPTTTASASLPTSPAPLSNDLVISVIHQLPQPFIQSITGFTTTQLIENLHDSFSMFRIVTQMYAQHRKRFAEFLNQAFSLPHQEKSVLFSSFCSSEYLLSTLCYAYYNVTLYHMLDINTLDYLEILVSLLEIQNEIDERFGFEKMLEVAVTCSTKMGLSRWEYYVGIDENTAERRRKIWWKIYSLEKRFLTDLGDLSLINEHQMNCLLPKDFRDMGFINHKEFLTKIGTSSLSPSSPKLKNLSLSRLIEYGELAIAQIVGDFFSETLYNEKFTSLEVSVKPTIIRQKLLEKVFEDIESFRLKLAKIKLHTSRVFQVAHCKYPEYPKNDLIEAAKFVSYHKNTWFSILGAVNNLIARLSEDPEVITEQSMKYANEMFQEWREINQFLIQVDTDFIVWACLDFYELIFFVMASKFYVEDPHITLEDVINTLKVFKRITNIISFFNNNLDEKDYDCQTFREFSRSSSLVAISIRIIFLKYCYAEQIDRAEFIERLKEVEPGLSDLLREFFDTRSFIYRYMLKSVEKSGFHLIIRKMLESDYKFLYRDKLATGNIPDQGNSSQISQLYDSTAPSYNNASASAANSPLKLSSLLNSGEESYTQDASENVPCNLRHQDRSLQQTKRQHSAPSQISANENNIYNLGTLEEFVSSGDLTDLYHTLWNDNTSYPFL
Outline: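 Each ungapped eight-base word and its reverse complement, pooled, received an E-score from the Universal PBM Analysis Suite. Underlying scans, normalised with masliner, recorded fluorescent anti-GST bound to GST-tagged yeast transcription factors. These were applied at about 100-200 nM to universal all-10-mer Agilent arrays double-stranded by primer extension.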

Sequence	PBM E-score
ATGCTACA	-0.24
CTATTGAC	-0.153
CGTAAGAA	-0.0798
ACAGTTAC	-0.111
AACCACGC	-0.177
CTATGGTA	-0.00506
ACAATATC	0.0025
CGGTCGGA	0.316
GCTCACGA	-0.316
GATTGTCC	0.101
CCGCCGGA	0.415
AACCAAGC	-0.145
ATGCTGTC	-0.139
ATGCGTGA	-0.0935
TAAAGGAA	-0.119
CGTAGACC	-0.149
CGCGTACA	-0.157
AGTGCGTC	-0.195
GACCATAA	-0.131
CCTGAGTC	0.0204
GAGAACGC	-0.0114
ATGTGCCC	-0.00665
CATTACTC	-0.106
AGGAGCAG	-0.0955
GTAATGAA	-0.1

Sequence	PBM E-score
AAACCATT	-0.226
GCTTAAAC	-0.167
CCGCATAG	0.137
CTCGCCAA	-0.0834
ACCATGTA	0.00278
ATTTGGTG	-0.158
ATCACCGG	0.165
ATTCCGTA	0.417
CTTTGCTA	-0.191
GCGTTTAC	-0.146
CGCCGTAA	0.123
AAGTCCCT	-0.267
TCCCCTCA	0.0964
GGAGAAGA	0.00088
CCCCCTCC	-0.151
GTGAGGCA	-0.107
CTAAGGAA	-0.0825
ACACATGG	-0.089
AAACTCGA	-0.0616
CTGCTCGA	-0.176
ACCATATG	-0.267
TAGCCCCA	-0.102
CAGAAGAC	-0.186
CGCGTGCC	0.15
AGGTCCAG	0.00919

Sequence	PBM E-score
CAGCATGG	-0.00655
AGGCAGGG	-0.153
AGGAGAGG	-0.208
CAGCGAGC	0.0361
ATAGGAAT	-0.214
GAAATACC	0.0501
GAAGCCCC	0.0575
AGCCCGCC	0.154
GAACGCTC	-0.099
AGCAATCA	-0.0574
ACGCACCC	-0.0922
CTCTGTAC	-0.0809
ATCAGAAT	0.0827
CTACGTTC	-0.0566
CTTCATGA	0.00401
ATATGACC	-0.0521
CTTACTAC	-0.0454
ATCGCCCC	0.0454
GGAGGGAC	0.0402
CAGGACTG	-0.324
CCCCGGAC	0.33
CACCCGGA	0.412
CTTACAGC	-0.3
CCACTCAG	-0.0676
CAACGGAG	0.307

Sequence	PBM E-score
GTCTCCAA	-0.0715
CCGACGTA	0.0909
GTACTAAA	-0.0395
CCTCCTAC	-0.196
ATTTTTGG	-0.0953
ACTAGTGC	-0.0837
ACACTAAC	-0.0387
CACACCCA	-0.094
CGATAGAC	-0.058
AGGGGACT	-0.156
GTGCGCAA	-0.00317
ACCTTTGG	-0.274
GAGTTAGC	-0.0292
GCCCCGCC	0.274
CCTTCATA	0.021
ACTAACGA	-0.107
CGTCGTGA	-0.105
CAAGAAGC	0.0573
AGGCCTCA	-0.181
AGTAAACA	0.015
GTCGTCTA	-0.0331
TCCCTCGA	0.0376
CGAACGCG	0.216
GCAACTAA	0.183
CGTTTCGC	-0.0217

Sequence	PBM E-score
TTGATCAA	0.13
ACGGACGA	0.304
CAGTAACA	-0.14
CCAAGCCC	-0.152
GTTGCGGA	0.236
TACAACCA	-0.00338
CTTTTATA	-0.314
ACGAATCC	0.066
AGCTCTCC	0.0331
CCGCAGTC	0.116
CCTTACAG	-0.132
AGAGAGCC	-0.117
ATGTTTTA	-0.238
AGCATCTG	-0.112
TAACCTGA	-0.16
AGGGTTAT	-0.0536
CCATGAGA	0.0687
GCTATGTA	-0.199
AATATGGC	-0.0504
AGTGCACA	0.0276
CAAAATGC	-0.172
AGCCTGTC	-0.149
ATTCTACA	0.0132
AGAGGGCC	-0.0343
AAATTGGG	-0.0338

Sequence	PBM E-score
TACTTAGA	-0.232
ACCAGGCA	-0.194
CTAACGCC	-0.0959
GTGGGATA	0.141
ATCAGTGG	-0.204
ACATTGGG	-0.0825
CTGTGCCC	0.0176
AGTGTTCA	0.0286
GAGGAGAC	-0.0903
ACCCGTCC	0.185
TCCTAGAA	-0.0812
ATAGGGCC	0.0139
TCCGGGCA	0.346
CCGAGTTC	0.227
CCTCGATC	-0.0159
CGATACGC	0.104
GAAACCAA	0.0981
AAGCGCGC	0.229
ACGTGCTG	-0.0058
AAACAGTA	-0.114
GCATATGA	0.061
AATGGGCG	-0.0571
AAGAGTTA	-0.185
CGAGCCTA	-0.131
GTCACCAA	-0.307

Sequence	PBM E-score
AATGGGGA	-0.0935
TGGGGGAA	-0.273
CCACGGTA	0.0861
ACGCGCTG	0.0203
GACACAAC	-0.0892
AGCTCGTG	0.218
GCCTCCAC	-0.207
ACCGATCC	0.172
AAACGTTT	0.00022
CTGCACGA	-0.124
CCTTTAGC	-0.181
CATACCGC	0.055
CCCCTATA	-0.00636
AATACGCG	0.0722
TATCATCA	0.0384
ACTCGATA	0.0433
CATCGAAA	-0.0314
AATGTCGG	0.0623
AGAGCGCG	0.0593
ATCTCAAC	0.123
CCCTATTA	-0.101
ACAGGGTG	-0.287
